# Data from the supplement of paper PMC8728848.
# This is one part of the list.
# Legend:
# Assay in all cases: glycan array binding signal (z-score within array); higher = stronger binding
# Conditions in all cases: glycan notation: IUPAC condensed, linker removed
# [1] = biological target: Neu5Ac(a2-3)Gal(b1-3)[Fuc(a1-4)]GlcNAc(b1-3)Gal(b1-3)[Fuc(a1-4)]GlcNAc
# Method in brief: (§1)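 Glycan array binding is given as a within-array Z-score, which can be read as non-binding when negative. The arrays, 3228 of them, came from the Consortium for Functional Glycomics database and were retained only where the protein sequence was available. Z-scores were averaged across arrays of the same protein sequence at different concentrations or buffers and across linkers.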
# [2] = biological target: Neu5Ac(a2-3)Gal(b1-3)[Fuc(a1-4)]GlcNAc(b1-3)Gal(b1-4)[Fuc(a1-3)]GlcNAc
# Method in brief: as §1
# [3] = biological target: Neu5Ac(a2-3)Gal(b1-3)[Neu5Ac(a2-3)Gal(b1-4)]GlcNAc
# Method in brief: as §1
# [4] = biological target: Neu5Ac(a2-3)Gal(b1-3)[Neu5Ac(a2-6)]GalNAc
# Method in brief: as §1
# [5] = biological target: Neu5Ac(a2-3)Gal(b1-3)[Neu5Ac(a2-6)]GlcNAc(b1-3)[Fuc(a1-3)[Gal(b1-4)]GlcNAc(b1-6)]Gal(b1-4)Glc
# Method in brief: as §1
# Neu5Ac(a2-3)Gal(b1-4)Glc = biological target: Neu5Ac(a2-3)Gal(b1-4)Glc
# Method in brief: as §1
# [6] = biological target: Neu5Ac(a2-3)Gal(b1-4)GlcNAc
# Method in brief: as §1
# [7] = biological target: Neu5Ac(a2-3)Gal(b1-4)GlcNAc(b1-2)Man
# Method in brief: as §1
# [8] = biological target: Neu5Ac(a2-3)Gal(b1-4)GlcNAc(b1-2)Man(a1-3)[GlcNAc(b1-2)Man(b1-4)GlcNAc(b1-2)Man(a1-6)]Man(b1-4)GlcNAc(b1-4)GlcNAc
# Method in brief: as §1
# [9] = biological target: Neu5Ac(a2-3)Gal(b1-4)GlcNAc(b1-2)Man(a1-3)[Neu5Ac(a2-3)Gal(b1-4)GlcNAc(b1-2)Man(a1-6)]Man(b1-4)GlcNAc(b1-4)[Fuc(a1-6)]GlcNAc
# Method in brief: as §1
# [10] = biological target: Neu5Ac(a2-3)Gal(b1-4)GlcNAc(b1-2)Man(a1-3)[Neu5Ac(a2-6)Gal(b1-4)GlcNAc(b1-2)Man(a1-6)]Man(b1-4)GlcNAc(b1-4)GlcNAc
# Method in brief: as §1
# [11] = biological target: Neu5Ac(a2-3)Gal(b1-4)GlcNAc(b1-2)[Neu5Ac(a2-3)Gal(b1-4)GlcNAc(b1-6)]Man(a1-6)[Neu5Ac(a2-3)Gal(b1-4)GlcNAc(b1-2)Man(a1-3)]Man(b1-4)GlcNAc(b1-4)GlcNAc
# Method in brief: as §1
# [12] = biological target: Neu5Ac(a2-3)Gal(b1-4)GlcNAc(b1-3)Gal
# Method in brief: as §1
# [13] = biological target: Neu5Ac(a2-3)Gal(b1-4)GlcNAc(b1-3)Gal(b1-3)GlcNAc
# Method in brief: as §1
# [14] = biological target: Neu5Ac(a2-3)Gal(b1-4)GlcNAc(b1-3)Gal(b1-4)GlcNAc
# Method in brief: as §1
# [15] = biological target: Neu5Ac(a2-3)Gal(b1-4)GlcNAc(b1-3)Gal(b1-4)GlcNAc(b1-3)Gal(b1-4)GlcNAc
# Method in brief: as §1
# [16] = biological target: Neu5Ac(a2-3)Gal(b1-4)GlcNAc(b1-3)Gal(b1-4)[Fuc(a1-3)]GlcNAc
# Method in brief: as §1
# [17] = biological target: Neu5Ac(a2-3)Gal(b1-4)GlcNAc(b1-3)GalNAc
# Method in brief: as §1
# [18] = biological target: Neu5Ac(a2-3)Gal(b1-4)GlcNAc(b1-3)[Neu5Ac(a2-3)Gal(b1-4)GlcNAc(b1-6)]GalNAc
# Method in brief: as §1
# [19] = biological target: Neu5Ac(a2-3)Gal(b1-4)GlcNAc(b1-6)GalNAc
# Method in brief: as §1
# [20] = biological target: Neu5Ac(a2-3)Gal(b1-4)GlcNAc(b1-6)[Gal(b1-3)]GalNAc
# Method in brief: as §1
# [21] = biological target: Neu5Ac(a2-3)Gal(b1-4)GlcNAc(b1-6)[Neu5Ac(a2-3)Gal(b1-3)]GalNAc
# Method in brief: as §1
# [22] = biological target: Neu5Ac(a2-3)Gal(b1-4)GlcNAc6S
# Method in brief: as §1
# [23] = biological target: Neu5Ac(a2-3)Gal(b1-4)[Fuc(a1-3)]GlcNAc
# Method in brief: as §1
# [24] = biological target: Neu5Ac(a2-3)Gal(b1-4)[Fuc(a1-3)]GlcNAc(b1-3)Gal
# Method in brief: as §1
# [25] = biological target: Neu5Ac(a2-3)Gal(b1-4)[Fuc(a1-3)]GlcNAc(b1-3)Gal(b1-4)GlcNAc
# Method in brief: as §1
# [26] = biological target: Neu5Ac(a2-3)Gal(b1-4)[Fuc(a1-3)]GlcNAc(b1-3)Gal(b1-4)[Fuc(a1-3)]GlcNAc(b1-3)Gal(b1-4)[Fuc(a1-3)]GlcNAc
# Method in brief: as §1
# [27] = biological target: Neu5Ac(a2-3)Gal(b1-4)[Fuc(a1-3)]GlcNAc(b1-3)GalNAc
# Method in brief: as §1
# [28] = biological target: Neu5Ac(a2-3)Gal(b1-4)[Fuc(a1-3)]GlcNAc(b1-6)[Gal(b1-3)]GalNAc
# Method in brief: as §1
# [29] = biological target: Neu5Ac(a2-3)Gal(b1-4)[Fuc(a1-3)]GlcNAc6S
# Method in brief: as §1
# [30] = biological target: Neu5Ac(a2-3)Gal6S(b1-4)GlcNAc
# Method in brief: as §1
# [31] = biological target: Neu5Ac(a2-3)Gal6S(b1-4)[Fuc(a1-3)]GlcNAc
# Method in brief: as §1
# Neu5Ac(a2-3)GalNAc = biological target: Neu5Ac(a2-3)GalNAc
# Method in brief: as §1
# [32] = biological target: Neu5Ac(a2-3)GalNAc(b1-4)GlcNAc
# Method in brief: as §1
# [33] = biological target: Neu5Ac(a2-3)[GalNAc(b1-4)]Gal(b1-4)Glc
# Method in brief: as §1
# [34] = biological target: Neu5Ac(a2-3)[GalNAc(b1-4)]Gal(b1-4)GlcNAc
# Method in brief: as §1
# [35] = biological target: Neu5Ac(a2-3)[GalNAc(b1-4)]Gal(b1-4)GlcNAc(b1-3)GalNAc
# Method in brief: as §1
# [36] = biological target: Neu5Ac(a2-3)[Neu5Ac(a2-6)]GalNAc
# Method in brief: as §1
# Neu5Ac(a2-6)Gal = biological target: Neu5Ac(a2-6)Gal
# Method in brief: as §1
# [37] = biological target: Neu5Ac(a2-6)Gal(b1-3)GlcNAc(b1-3)[Gal(b1-4)GlcNAc(b1-6)]Gal(b1-4)Glc
# Method in brief: as §1
# Neu5Ac(a2-6)Gal(b1-4)Glc = biological target: Neu5Ac(a2-6)Gal(b1-4)Glc
# Method in brief: as §1
# [38] = biological target: Neu5Ac(a2-6)Gal(b1-4)GlcNAc
# Method in brief: as §1
# [39] = biological target: Neu5Ac(a2-6)Gal(b1-4)GlcNAc(b1-2)Man(a1-3)Man(b1-4)GlcNAc(b1-4)GlcNAc
# Method in brief: as §1
# [40] = biological target: Neu5Ac(a2-6)Gal(b1-4)GlcNAc(b1-2)Man(a1-3)[Gal(b1-4)GlcNAc(b1-2)Man(a1-6)]Man(b1-4)GlcNAc(b1-4)GlcNAc
# Method in brief: as §1
binder,measurement,setting,value
"Gal 8 (Homo sapiens), O00214_1 (protein) MMLSLNNLQNIIYNPVIPFVGTIPDQLDPGTLIVIRGHVPSDADRFQVDLQNGSSMKPRADVAFHFNPRFKRAGCIVCNTLINEKWGREEITYDTPFKREKSFEIVIMVLKDKFQVAVNGKHTLLYGHRIGPEKIDTLGIYGKVNIHSIGFSFSSDLQSTQASSLELTEISRENVPKSGTPQLRLPFAARLNTPMGPGRTVVVKGEVNANAKSFNVDLLAGKSKDIALHLNPRLNIKAFVRNSFLQESWGEEERNITSFPFSPGMYFEMIIYCDVREFKVAVNGVHSLEYKHRFKELSSIDTLEINGDIHLLEVRSW",glycan array binding signal (z-score),[1],-0.255
same,glycan array binding signal (z-score),[2],-0.246
same,glycan array binding signal (z-score),[3],-0.192
same,glycan array binding signal (z-score),[4],-0.163
same,glycan array binding signal (z-score),[5],-0.082
same,glycan array binding signal (z-score),Neu5Ac(a2-3)Gal(b1-4)Glc,0.487
same,glycan array binding signal (z-score),[6],-0.207
same,glycan array binding signal (z-score),[7],-0.088
same,glycan array binding signal (z-score),[8],-0.189
same,glycan array binding signal (z-score),[9],-1.19
same,glycan array binding signal (z-score),[10],-0.225
same,glycan array binding signal (z-score),[11],-9.02
same,glycan array binding signal (z-score),[12],-0.242
same,glycan array binding signal (z-score),[13],-0.205
same,glycan array binding signal (z-score),[14],-0.244
same,glycan array binding signal (z-score),[15],0.313
same,glycan array binding signal (z-score),[16],-0.186
same,glycan array binding signal (z-score),[17],-0.227
same,glycan array binding signal (z-score),[18],-0.265
same,glycan array binding signal (z-score),[19],-0.203
same,glycan array binding signal (z-score),[20],-0.174
same,glycan array binding signal (z-score),[21],-0.13
same,glycan array binding signal (z-score),[22],-0.048
same,glycan array binding signal (z-score),[23],-0.24
same,glycan array binding signal (z-score),[24],-0.243
same,glycan array binding signal (z-score),[25],-0.166
same,glycan array binding signal (z-score),[26],0.337
same,glycan array binding signal (z-score),[27],-0.863
same,glycan array binding signal (z-score),[28],-0.123
same,glycan array binding signal (z-score),[29],-0.235
same,glycan array binding signal (z-score),[30],-0.089
same,glycan array binding signal (z-score),[31],-0.276
same,glycan array binding signal (z-score),Neu5Ac(a2-3)GalNAc,-0.201
same,glycan array binding signal (z-score),[32],-0.219
same,glycan array binding signal (z-score),[33],-0.224
same,glycan array binding signal (z-score),[34],-0.143
same,glycan array binding signal (z-score),[35],0.2
same,glycan array binding signal (z-score),[36],-0.276
same,glycan array binding signal (z-score),Neu5Ac(a2-6)Gal,-0.236
same,glycan array binding signal (z-score),[37],-0.269
same,glycan array binding signal (z-score),Neu5Ac(a2-6)Gal(b1-4)Glc,-0.118
same,glycan array binding signal (z-score),[38],-0.213
same,glycan array binding signal (z-score),[39],-0.191
same,glycan array binding signal (z-score),[40],-0.254
